Some of the results follow. Values were computed here from the reads of four pooled replicates and scatter widely.
What follows are sequences tested against T1, Pho4 (S. cerevisiae) (UniProt P07270) (assay: relative binding free energy (BET-seq); higher = weaker binding). Conditions: reference: library average.
T1 sequence: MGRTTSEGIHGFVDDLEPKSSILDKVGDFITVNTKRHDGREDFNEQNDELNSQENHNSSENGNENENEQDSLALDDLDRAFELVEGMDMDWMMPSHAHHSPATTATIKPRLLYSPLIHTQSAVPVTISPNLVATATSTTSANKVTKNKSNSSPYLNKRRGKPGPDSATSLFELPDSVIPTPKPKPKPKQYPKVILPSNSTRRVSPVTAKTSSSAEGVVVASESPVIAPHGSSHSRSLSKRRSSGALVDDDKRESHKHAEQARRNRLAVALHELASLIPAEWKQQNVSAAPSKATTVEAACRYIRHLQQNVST

Sequence	relative binding free energy
TGGCGCACGTGTTGTC	-0.07 kcal/mol
TGTGTCACGTGTACAT	-0.04 kcal/mol
TAAGGCACGTGACGGT	-0.18 kcal/mol
TCGGGCACGTGGCTTT	-0.21 kcal/mol
TAGGACACGTGGGTGG	-0.18 kcal/mol
GGCGGCACGTGGAAGG	-0.01 kcal/mol
GGGTTCACGTGTGTCC	0.41 kcal/mol
TGTTGCACGTGGATGG	0.13 kcal/mol
CTTGGCACGTGTTTGA	-0.1 kcal/mol
GCGGGCACGTGAGGGC	0.23 kcal/mol
TTAAGCACGTGATAGG	-0.01 kcal/mol
TCATGCACGTGTATGG	0 kcal/mol
AGTGGCACGTGTCGCT	-0.07 kcal/mol
GAATTCACGTGGTGTG	0.24 kcal/mol
TTTCACACGTGATGGC	0.24 kcal/mol
GATTTCACGTGGCGTT	0.28 kcal/mol
AATGGCACGTGTTTCG	-0.13 kcal/mol
CGTAGCACGTGAGTGG	0.02 kcal/mol
AGTGTCACGTGGCGCA	-0.02 kcal/mol
CGCTTCACGTGGTGGA	0.13 kcal/mol
AACAGCACGTGGTTGT	-0.27 kcal/mol
AGTTGCACGTGGCGGT	-0.15 kcal/mol
TGGTGCACGTGCCGTG	-0.18 kcal/mol
TAGTTCACGTGCTTAG	0.28 kcal/mol
ACTTGCACGTGTGTGG	-0.03 kcal/mol
CGAGGCACGTGAGGCT	0.16 kcal/mol

Sequence	relative binding free energy
CAGGGCACGTGTTTGG	-0.04 kcal/mol
TTTAGCACGTGTTTGA	-0.06 kcal/mol
GCGATCACGTGGCGGG	0.12 kcal/mol
GTGGGCACGTGGGTTA	-0.22 kcal/mol
TTGGACACGTGATTGT	0.22 kcal/mol
AGTCACACGTGGGAAG	-0.03 kcal/mol
GTGGGCACGTGGGATG	-0.13 kcal/mol
GGTATCACGTGGGTTC	0.08 kcal/mol
GGGCTCACGTGGGAGA	0.11 kcal/mol
TACTGCACGTGTGTGC	0.09 kcal/mol
AGCAGCACGTGGGGAG	-0.19 kcal/mol
AATCACACGTGTTTGT	-0.06 kcal/mol
CGTAACACGTGGTGTA	-0.12 kcal/mol
TATTGCACGTGAGGTC	0.24 kcal/mol
ATTCTCACGTGAGATT	0.39 kcal/mol
TGCGGCACGTGTGTTA	0.01 kcal/mol
AATAACACGTGGTGTA	-0.18 kcal/mol
GACGGCACGTGGCGTG	-0.13 kcal/mol
AAGGGCACGTGAGTTG	0.14 kcal/mol
GTGGGCACGTGGTCAA	-0.13 kcal/mol
AGAGGCACGTGGAGGT	0.02 kcal/mol
AGAAACACGTGGCGGT	-0.03 kcal/mol
AGTCACACGTGGTAGG	-0.08 kcal/mol
ATTTTCACGTGGTAGA	0.23 kcal/mol
AGCCGCACGTGGTGAG	-0.11 kcal/mol
TCTTTCACGTGGGGCC	0.27 kcal/mol

Sequence	relative binding free energy
AGGTTCACGTGAAGGC	0.43 kcal/mol
CGGGCCACGTGGTATG	-0.23 kcal/mol
TTCGGCACGTGATGTC	0.1 kcal/mol
ATAGACACGTGTATAT	-0.01 kcal/mol
TAGATCACGTGCGATT	0.2 kcal/mol
AAGGTCACGTGAGGGG	0.3 kcal/mol
TGGCGCACGTGGTACA	-0.09 kcal/mol
AGATGCACGTGTGCTA	-0.01 kcal/mol
AGAGTCACGTGACGGT	0.35 kcal/mol
TCAGGCACGTGTAGTT	-0.07 kcal/mol
ATGGGCACGTGGCGTT	-0.31 kcal/mol
TGATGCACGTGGGTTG	-0.14 kcal/mol
GAGTGCACGTGGTGAA	-0.01 kcal/mol
GGGGACACGTGTGCAT	0.02 kcal/mol
AGCGTCACGTGTGTGG	0.15 kcal/mol
ATTTTCACGTGGTATG	0.24 kcal/mol
GGTATCACGTGGGGTC	0.12 kcal/mol
ATTAACACGTGAGGAG	0.18 kcal/mol
GTGGTCACGTGGATTT	0.23 kcal/mol
CGATGCACGTGGCGTG	-0.11 kcal/mol
GTGGACACGTGAAATG	0.26 kcal/mol
GTCTGCACGTGGGTAA	-0.09 kcal/mol
TTGGGCACGTGGGTGA	-0.23 kcal/mol
ATGTGCACGTGGAGTT	-0.02 kcal/mol
GCTATCACGTGTATGT	0.16 kcal/mol
GGTACCACGTGTGATG	0.08 kcal/mol

Sequence	relative binding free energy
AGTGCCACGTGTGTGT	-0.14 kcal/mol
ATATGCACGTGGGCGT	-0.24 kcal/mol
ATGCGCACGTGTCTGG	-0.12 kcal/mol
AAGTGCACGTGGTTAG	0.02 kcal/mol
GTATGCACGTGCTCGG	-0.08 kcal/mol
TCGGGCACGTGTCATG	-0.11 kcal/mol
GGGGTCACGTGCGTGT	0.2 kcal/mol
TGTCTCACGTGAAAGG	0.51 kcal/mol
TGCAGCACGTGAGGCT	0.23 kcal/mol
TAGTACACGTGGATGG	-0.03 kcal/mol
AGATACACGTGGTTGA	0.02 kcal/mol
TTAGACACGTGGTAAG	-0.16 kcal/mol
TGTGACACGTGGTTTG	-0.02 kcal/mol
CCTGGCACGTGTTGTT	-0.04 kcal/mol
GACGTCACGTGTAGTG	0.27 kcal/mol
GGCAACACGTGGCGGG	-0.08 kcal/mol
GGCGACACGTGGGAAG	-0.01 kcal/mol
GAGCTCACGTGTGTGA	0.26 kcal/mol
CTTATCACGTGTATTT	0.03 kcal/mol
GAGCTCACGTGGGAAG	0.25 kcal/mol
GGTTACACGTGGTTCG	0.09 kcal/mol
GATGTCACGTGAGCGT	0.25 kcal/mol
TTAGGCACGTGTGCGG	-0.17 kcal/mol
AGGTGCACGTGCACGT	-0.14 kcal/mol
AGTTTCACGTGTTCGA	0.14 kcal/mol
GGCAGCACGTGAGTTG	0.12 kcal/mol

Sequence	relative binding free energy
CAGGGCACGTGTGGCG	-0.03 kcal/mol
GGTGTCACGTGAAAGT	0.35 kcal/mol
GTCAGCACGTGCGGGT	-0.02 kcal/mol
TAAGTCACGTGTGGCA	0.17 kcal/mol
TAGTTCACGTGATGAG	0.31 kcal/mol
TTGATCACGTGTCAGG	0.28 kcal/mol
GAAGTCACGTGGATTT	0.29 kcal/mol
CTTATCACGTGTGGGT	0.04 kcal/mol
TGAGTCACGTGCTATG	-0.13 kcal/mol
GGGTCCACGTGTGGAG	0.07 kcal/mol
GTTTACACGTGTTGCT	0.11 kcal/mol
CGGCCCACGTGGGTTG	-0.11 kcal/mol
TGTTGCACGTGGTTCA	-0.1 kcal/mol
ATCGTCACGTGTGGTC	0.17 kcal/mol
GATGTCACGTGCGTTG	0.02 kcal/mol
AGAGTCACGTGTTGTG	-0.04 kcal/mol
GGAGACACGTGGTGTA	-0.15 kcal/mol
GATGTCACGTGGGTAG	0.08 kcal/mol
GGTTGCACGTGCTAAG	0.05 kcal/mol
AGTTACACGTGGTATT	0.08 kcal/mol
ATTCTCACGTGGTGTA	0.02 kcal/mol
AGATGCACGTGCTCGT	0.05 kcal/mol
ATGGACACGTGCGGGG	-0.01 kcal/mol
GGTCGCACGTGGGTCG	-0.2 kcal/mol
TGGAGCACGTGCGGAG	-0.06 kcal/mol
GTTGGCACGTGTCTAT	0.12 kcal/mol

Sequence	relative binding free energy
GAGGACACGTGTTTGA	0.14 kcal/mol
GTGTGCACGTGCATGA	-0.13 kcal/mol
GGCTTCACGTGGAAGG	0.35 kcal/mol
GTTTGCACGTGCGGTG	0.12 kcal/mol
TGTAGCACGTGTTGTA	-0.02 kcal/mol
AGTGTCACGTGTCTGA	0.16 kcal/mol
CGGGGCACGTGTGGTC	-0.07 kcal/mol
TAAAGCACGTGATTTT	-0.02 kcal/mol
TTAGTCACGTGGAATA	0.22 kcal/mol
TAGGGCACGTGGTATG	-0.14 kcal/mol
CGTTGCACGTGGTGTC	-0.07 kcal/mol
TGAGTCACGTGAATGG	0.28 kcal/mol
GTAGTCACGTGATTTT	0.2 kcal/mol
GGTAGCACGTGAAATT	0.28 kcal/mol
ATTGACACGTGGAGGG	0.05 kcal/mol
AGCGACACGTGGTTTT	-0.05 kcal/mol
AAGTTCACGTGTTCTG	0.36 kcal/mol
TACGACACGTGTGGAG	0.03 kcal/mol
TGGCACACGTGGTGCT	0.05 kcal/mol
ATAATCACGTGGTTGC	0.06 kcal/mol
TTGAACACGTGAGCGT	0.19 kcal/mol
GGGGTCACGTGCTGTA	0.14 kcal/mol
GGGGGCACGTGTTGTG	-0.09 kcal/mol
TTGATCACGTGGAAGG	0.27 kcal/mol
GCAGTCACGTGATGTG	0.31 kcal/mol
TGTGTCACGTGGGGCC	-0.06 kcal/mol

Sequence	relative binding free energy
TTTGTCACGTGAGGGG	0.24 kcal/mol
GTGGTCACGTGAGTAA	0.28 kcal/mol
AAAAGCACGTGTGGTA	0.06 kcal/mol
GTGTGCACGTGGCATC	0.07 kcal/mol
CGTGTCACGTGGCGTC	0.08 kcal/mol
AGTTTCACGTGGAGTA	0.19 kcal/mol
GTCTGCACGTGATCGT	0.17 kcal/mol
GGGGTCACGTGTGATT	0.44 kcal/mol
GGCCGCACGTGGTTGT	-0.14 kcal/mol
GCGTGCACGTGAAGTT	0.21 kcal/mol
GTGACCACGTGATGGT	-0.02 kcal/mol
GTGTGCACGTGTATTT	0.11 kcal/mol
TGATACACGTGCGGGG	-0.08 kcal/mol
TAGATCACGTGGAGAT	0.23 kcal/mol
TTAATCACGTGAGGGA	0.31 kcal/mol
GTGGTCACGTGGGGGG	0.01 kcal/mol
TTACACACGTGGAGGG	0 kcal/mol
GAAGGCACGTGCGGGT	-0.03 kcal/mol
GGAGTCACGTGGTTGC	0.15 kcal/mol
GGAATCACGTGTGGGG	0.23 kcal/mol
ATATCCACGTGGAGGT	-0.05 kcal/mol
TAAGTCACGTGGGTTG	-0.03 kcal/mol
AATTGCACGTGTATAG	-0.03 kcal/mol
GCAATCACGTGTGTTT	0.18 kcal/mol
CGTCGCACGTGGAGGT	-0.12 kcal/mol
TTTGACACGTGGAAGC	0.16 kcal/mol

Sequence	relative binding free energy
GGGGTCACGTGTTTTG	0.29 kcal/mol
CGGGTCACGTGACTGG	0.19 kcal/mol
ATATGCACGTGAGTGG	0.17 kcal/mol
GTTCTCACGTGTTAGT	0.35 kcal/mol
GTATACACGTGTAGTT	0.13 kcal/mol
CATTACACGTGTGGTG	0.14 kcal/mol
TAAGGCACGTGGGTCG	-0.24 kcal/mol
TAGGTCACGTGGTTCT	0.05 kcal/mol
TACTGCACGTGAGGTT	0.2 kcal/mol
AGTGACACGTGGATTG	-0.06 kcal/mol
TGTATCACGTGGGAAC	0.18 kcal/mol
GATTTCACGTGGATGG	0.44 kcal/mol
GGGCGCACGTGGGATG	-0.16 kcal/mol
TTTTGCACGTGGCGTA	-0.06 kcal/mol
GAGGGCACGTGGGGCG	-0.21 kcal/mol
TGCTTCACGTGTGTAG	0.23 kcal/mol
AGTCGCACGTGGTATT	-0.13 kcal/mol
GTCAGCACGTGAGGGA	0.15 kcal/mol
GTACTCACGTGGTGCG	0.2 kcal/mol
AACGGCACGTGTGATG	0.05 kcal/mol
TCTAACACGTGTGGTG	-0.03 kcal/mol
TCTAGCACGTGGGTGA	-0.2 kcal/mol
GAATCCACGTGTGTGG	0.09 kcal/mol
CTCGGCACGTGATGGT	0 kcal/mol
GTAGGCACGTGGATGA	-0.04 kcal/mol
GGGTACACGTGGATTC	0.28 kcal/mol

Sequence	relative binding free energy
TATTTCACGTGAAGGT	0.29 kcal/mol
AGTTTCACGTGCGTGA	0.16 kcal/mol
CATGTCACGTGTTTTA	-0.03 kcal/mol
TTACTCACGTGTTTGG	0.13 kcal/mol
AGAGTCACGTGAGTTG	0.28 kcal/mol
AAGAACACGTGAGGGT	0.29 kcal/mol
GGTAGCACGTGTGTCT	0.02 kcal/mol
TAGGGCACGTGGTCGG	-0.03 kcal/mol
CGGCACACGTGAGGGT	0.29 kcal/mol
CGGCGCACGTGTGTAG	0.03 kcal/mol
AGTTGCACGTGGAAAG	0.08 kcal/mol
ATGCGCACGTGGGCTG	-0.31 kcal/mol
AAGTGCACGTGTGTGT	-0.01 kcal/mol
GGGCCCACGTGTATGT	0.02 kcal/mol
AGCTGCACGTGCTTTT	0.08 kcal/mol
ATTTCCACGTGGAGTG	0.08 kcal/mol
GAAGTCACGTGATAGT	0.19 kcal/mol
GGTGGCACGTGCGGTA	-0.08 kcal/mol
GAGGGCACGTGGGTAC	-0.28 kcal/mol
TCTTGCACGTGATAGT	0.03 kcal/mol
TAAATCACGTGTTAGT	0.07 kcal/mol
TGGCGCACGTGTGGCT	0.1 kcal/mol
